# Hit rate of the full screen: of about 110,000 compounds, about 230 (0.21%) showed an effect of 50% or more. Some of the results follow.
# Target: DPAP1 (Plasmodium falciparum, UniProt Q8IIJ9)
# Test: primary screen, percent inhibition; read by cleavage of a fluorogenic dipeptide substrate; higher = more effect of the substance
# Parameters: species or system P. falciparum D10 trophozoite lysates; single well
# 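Further: 30 min substrate incubation versus DMSO and 10 µM JCP410 controls.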
# DPAP1, sequence (Q8IIJ9 whole entry, looked up): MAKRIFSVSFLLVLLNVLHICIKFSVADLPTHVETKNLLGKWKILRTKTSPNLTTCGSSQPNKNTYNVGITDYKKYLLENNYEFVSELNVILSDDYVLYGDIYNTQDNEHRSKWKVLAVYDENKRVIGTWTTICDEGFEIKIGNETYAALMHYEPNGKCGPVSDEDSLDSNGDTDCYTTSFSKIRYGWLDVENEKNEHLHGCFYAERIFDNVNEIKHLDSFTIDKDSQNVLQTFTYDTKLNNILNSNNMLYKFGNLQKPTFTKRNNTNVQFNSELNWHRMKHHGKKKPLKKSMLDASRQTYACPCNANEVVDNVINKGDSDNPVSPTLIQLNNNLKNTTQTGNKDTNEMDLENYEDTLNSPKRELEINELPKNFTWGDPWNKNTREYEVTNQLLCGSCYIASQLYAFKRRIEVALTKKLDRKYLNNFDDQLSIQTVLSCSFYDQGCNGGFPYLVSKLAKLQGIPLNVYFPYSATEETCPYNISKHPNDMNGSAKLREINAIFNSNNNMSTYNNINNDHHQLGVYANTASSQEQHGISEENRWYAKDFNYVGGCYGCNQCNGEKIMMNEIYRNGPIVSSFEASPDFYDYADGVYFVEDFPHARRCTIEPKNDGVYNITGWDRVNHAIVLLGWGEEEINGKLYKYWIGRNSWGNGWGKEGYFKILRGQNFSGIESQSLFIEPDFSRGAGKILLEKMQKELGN
row,SMILES,% Inhibition @ 10 uM
1,CO/C(O)=C1/C(C)=NC(=S)NC1c1ccc(Cl)cc1 (stereo not shown),-1.5%
2,COc1ccc(OC)c(-n2cc(-c3ccccc3)nc2SC)c1,4.49%
3,CCCCN(C)C(=O)/C(=C/c1cn(S(=O)(=O)N(C)C)c2ccccc12)NC(=O)c1ccc(C)cc1,-1.74%
4,CCS(=O)(=O)c1nc(S(=O)(=O)c2ccc(Cl)cc2)c(NCc2ccc(OC)cc2)s1,2.76%
5,O=S(=O)(Nc1ccccc1Cl)c1cccc(C(F)(F)F)c1,-0.999%
6,O=C(Nc1ccccc1)/C(O)=C/C(=O)c1ccccc1,4.17%
7,Cc1ccc(S(=O)(=O)NCCCOC(=O)Nc2ccncc2)cc1,-5.01%
8,CC1(C)COC2(OC1)C(=O)Nc1ccccc12,4.61%
9,CC1=NN(c2ccccc2)C(=O)/C1=C\c1cc2c(cc1Cl)OCO2,-4.21%
10,O=C1C2CN3CCN(C2)CC1(Cc1ccccc1)C3,-1.82%
11,NCCC1COc2ccccc2O1 (stereo not shown),0.0539%
12,COC(=O)c1cc(S(=O)(=O)NCc2ccccc2OC)c[nH]1,-0.267%
13,Cn1c(NCC(O)CO)nc2c1c(=O)n(Cc1ccccc1Cl)c(=O)n2C (stereo not shown),-5.41%
14,Clc1ccccc1C1C=C(c2cccs2)Nc2ncnn21 (stereo not shown),-1.62%
15,Cc1ccc(NC(=O)C2CCN(S(=O)(=O)c3ccc(Cl)cc3)CC2)cc1C,-5.3%
16,COc1cc(-c2nc3n(n2)C(c2ccncc2)C2=C(O)CCCC2=N3)cc(OC)c1OC (stereo not shown),13.5%
17,Cc1ccc(-c2csc(/C(C#N)=C\C=C\c3ccccc3)n2)cc1,-1.22%
18,CC(C)C[C@H](OC(=O)Nc1ccc(-c2cnc(-c3ccncc3)s2)cc1)C(=O)NCC#N,18.1%
19,COCc1[nH]nc2c1C(c1cccc(O)c1)C(C#N)=C(N)O2 (stereo not shown),-4.75%
20,CC(C)(C)Cc1ccc(OCCCC(=O)Nc2ccc(Cl)c(N)c2)c(CC(C)(C)C)c1,2.62%
21,COc1ccc(C2OC3(C(=O)c4ccccc4C3=O)C3C(=O)N(c4ccc(C)cc4)C(=O)C23)cc1OC (stereo not shown),-4.69%
22,CSc1nc(-c2ccccc2)cn1-c1ccccc1F,9.6%
23,COc1ccc(C(NC(=O)COc2ccccc2)c2cc(Cl)c3cccnc3c2O)cc1OC (stereo not shown),-6.93%
24,Nc1c2c(nc3ccn(-c4ccccc4)c(=O)c13)CCCC2,-10.4%
25,CC(C)(C)NS(=O)(=O)c1ccc(NC(=O)c2ccco2)cc1,0.13%

row,SMILES,% Inhibition @ 10 uM
1,O=C(Cc1ccccc1)Nc1cccc(Cl)c1,-3.65%
2,CCC(C(=O)NCCCN1CC(C)CC(C)C1)n1ncn2c(cc3occc32)c1=O (stereo not shown),-1.81%
3,COc1ccc2c(c1)c1ncn(CCN3CCN(Cc4ccccc4)CC3)c(=O)c1n2C,1.64%
4,CC(=O)Nc1ccc(Cl)c(C(N)=O)c1,-2%
5,COCCCNC(=O)/C(C#N)=C/c1c(Oc2ccc(Cl)c(C)c2)nc2ccccn2c1=O,-5.11%
6,CC(C)Cc1c(C#N)c(N)nc(S)c1C#N,78.5%
7,CC1CC2(CCCCC2)NCc2ccccc21 (stereo not shown),4.3%
8,Cc1ccc(C2CC(=O)NC(SCCC(C)C)=C2C#N)cc1 (stereo not shown),5.23%
9,O=C(O)c1ccc(-c2ccc(/C=C3/NC(=O)N(Cc4ccccc4F)C3=O)o2)cc1,9.97%
10,Cc1ccc(OCCSc2nc3ccccc3n2CCO)cc1,1.27%
11,COc1ccc(C(=O)c2c(/C=C/N(C)C)oc3ccc(OC)cc23)cc1,-0.261%
12,CCCC/N=C(\C)c1sc2ccc(OCC)cc2c1O,6.19%
13,Cc1c(-c2ccccc2)n(CCO)c2nc3c(c(=O)n(C)c(=O)n3C)n12,-4.42%
14,O=C1NC(=O)C(Cc2ccccc2)(c2ccccc2)N1 (stereo not shown),1.83%
15,CC(CNC(=O)Cn1ncn2c(cc3ccccc32)c1=O)c1ccccc1 (stereo not shown),-1.7%
16,CCCN1CCN(C(=O)c2cnn(-c3ccc(C)cc3)c2-n2cccc2)CC1,-5.74%
17,COc1ccccc1Cn1c(=O)oc2ccc(C)cc21,-6.37%
18,CCOc1ccc(N2C(=O)CC(N3CCCCC3)C2=O)cc1 (stereo not shown),4.76%
19,O=[N+]([O-])c1cc(Cl)ccc1N1CCN(Cc2ccccc2)CC1,1.04%
20,C/C(=C\c1cccc(Cl)c1Cl)C(=O)c1c(C)cc(C)nc1O,-2.48%
21,Cc1nn(CC(=O)NC(C)CCc2ccccc2)c(=O)c2cccn12 (stereo not shown),-2.45%
22,COc1ccc(CCNC(=O)c2cc3c(s2)-c2ccccc2OC3)c(OC)c1,3.45%
23,Cc1nc2cc(-c3ccccc3)nn2c(C)c1CC(=O)NCc1ccco1,-4.24%
24,O=C(O)c1cccc(S(=O)(=O)N2CCN(C(=O)c3ccccc3)CC2)c1,-1.24%
25,Cc1ccc(N(CC(=O)NC(C)C)S(C)(=O)=O)cc1Cl,-3.25%

row,SMILES,% Inhibition @ 10 uM
1,COCCN1C(=O)/C(=C\c2ccc(Cl)c(Cl)c2)C(C(=O)OC)=C1C,1.72%
2,CC1CC(C)CN(CCCNC(=O)c2cc3c(-c4ccccc4F)nn(C)c3s2)C1 (stereo not shown),-5.1%
3,Cc1cc(O)n2nc(NCc3cccs3)nc2n1,-2.4%
4,COc1ccc(C(=O)N2CCN(Cc3ccc(C)cc3)CC2)cc1,-2.32%
5,Cc1noc(C)c1CCNC(=O)Nc1cn(CC(C)C)c(=O)c2ccccc12,-5.94%
6,CCC(C(=O)NC(C)c1ccc2c(c1)OCCO2)n1nc(C)n2c(cc3occc32)c1=O (stereo not shown),-2%
7,CCOC(=O)C1=C(CN2CCC3(CC2)OCCO3)NC(=O)NC1c1ccc(OC(C)C)cc1 (stereo not shown),2.39%
8,c1ccc(-c2nnc3n2C2(CCCCC2)Cc2ccccc2-3)cc1,-1.99%
9,Cn1c(=O)nc(-c2ccccc2)c2cc(Cl)ccc21,6.54%
10,COc1ccc(OC)c(CCNCc2c(C(=O)O)c(C)n(Cc3cc(C)ccc3C)c2C)c1,2.99%
11,CC(=O)c1ccc(-c2ccc(/C=c3\sc4nc(=O)c(C)nn4c3=O)o2)cc1,1.91%
12,COc1ccc(C2CC(=O)NC3=C2C(=O)CC(C)(C)C3)cc1Cl (stereo not shown),3.5%
13,Cc1ccc(N[C@H]2CS(=O)(=O)C[C@H]2O)cc1,-4.06%
14,CC(C)CC(NC(=O)C(CC(C)C)NC(=O)OC(C)(C)C)C(=O)O (stereo not shown),-7.46%
15,COc1ccc2nc3c(O)n(Cc4ccc(Cl)cc4)cnc-3c2c1,4.8%
16,CCOc1ccccc1-c1nn2c(-c3ccncc3)nnc2s1,-0.45%
17,Cc1ccc(-c2ccc(C=C3C(=O)NC(=O)NC3=O)o2)cc1,6.42%
18,O=C(c1ccc([N+](=O)[O-])cc1)N1CCSC1c1ccc(Cl)cc1 (stereo not shown),0.162%
19,O=C(CCS(=O)(=O)c1ccc(Br)s1)NCc1ccc2c(c1)OCO2,-4.07%
20,COc1cc(/C=C2\N=C(c3c(-c4ccccc4)noc3C)OC2=O)cc(OC)c1OC,4.35%
21,Cc1cc(C)cc(C(=O)NCCn2ccc3ccccc32)c1,-1.62%
22,NC(=O)c1cccnc1Sc1nc2ccccc2s1,1.08%
23,Cc1ccc(S(=O)(=O)c2cc3c(=O)n4ccccc4nc3n(CCc3ccccc3)c2=N)cc1,-3.33%
24,Clc1ccccc1-c1nn2c(-c3ccncc3)nnc2s1,4.47%
25,CSc1cccc(NC(=O)c2ccc(Cl)cc2)c1,-0.68%

row,SMILES,% Inhibition @ 10 uM
1,Cc1ccc2c(c1)C1CN(C)CCC1N2C(=O)c1ccc(Cn2cc(Br)cn2)o1 (stereo not shown),3.53%
2,CCOC(=O)N1CCN(C(=O)c2cc(-c3ccc(OC)cc3)[nH]n2)CC1,-3.53%
3,CC(C)CCNC(=O)C1CC(=O)N(CCc2ccccc2)C1 (stereo not shown),1.62%
4,Brc1ccc(CSc2n[nH]c3nc4ccccc4n23)cc1,1.23%
5,CC1CCCCN1C(=O)c1cc(-c2ccc3c(c2)OCO3)on1 (stereo not shown),-4.43%
6,Cc1ccc(C2=NS(=O)(=O)N(C)C(C(=O)Nc3sc4c(c3C#N)CCC4)=C2)cc1,0.655%
7,COc1ccccc1/C=C/C(=O)NCC(=O)N1CCC(N(C)C2CCCCC2C)CC1 (stereo not shown),-2.85%
8,O=C1c2ccccc2-c2nc3cc4[nH]c(O)nc4cc3nc21,-6.3%
9,Cc1ccnc(NC(=O)CCC2COc3ccccc3O2)c1 (stereo not shown),-1.72%
10,CC(C)(CO)NCc1ccccc1OCc1ccccc1,0.361%
11,CC12C(=O)N(c3cccc(Cl)c3)C(=O)C1C1C=CC2C1 (stereo not shown),-9.25%
12,CCN(CC)CCNS(=O)(=O)c1ccc2ncc(C(=O)O)c(O)c2c1,-0.601%
13,COc1ccccc1Nc1cc(C)nc2c(C)c(C)cc(N)c12,-16.1%
14,CC1=C(C(=O)NCCCOC(C)C)C2(CCC(C)CC2)OC1=O (stereo not shown),-3.7%
15,CC(=O)Nc1ccc(Nc2nc(-c3sc(C)nc3C)cs2)cc1,-10.3%
16,CCC(C)NC(=O)Cn1c(-c2cccs2)cc2ccccc21 (stereo not shown),10.5%
17,Brc1ccc(-c2cc(-c3ccccc3)nc(N3CCOCC3)n2)cc1,4.42%
18,Cc1c(C(=O)NCCc2c[nH]c3ccccc23)sc2nc3n(c(=O)c12)CCCCC3,0.372%
19,CC(C)NC(=O)C1CCN(C(=O)c2ccc(-c3ccccc3)cc2)CC1,-3.78%
20,CN(C)CCC/N=C1\C=C(O)OC12CCCCC2,-4.93%
21,COCCn1c2c(c(=O)[nH]c1=O)C(c1cccc(Cl)c1Cl)C1=C(O)c3ccccc3C1=N2 (stereo not shown),17.8%
22,CCOc1c(N2CCCCC2)c(=O)c1=O,-2.17%
23,COc1ccc2nc(O)c(-c3noc(-c4ccccc4Br)n3)cc2c1,-7.33%
24,O=C(NCc1ccncc1)Nc1cccc(Cl)c1,-2.76%
25,CC(C)(C)c1[nH]nc2c1C(c1ccco1)C(C#N)=C(N)O2 (stereo not shown),-2.46%

# Reference: publication PMC6919601, “Identification of Plasmodium dipeptidyl aminopeptidase allosteric inhibitors by high throughput screening” (PLoS ONE, 2019)
